Results reported in paper PMC10004157, “Exploration of Pyrido[3,4-d]pyrimidines as Antagonists of the Human Chemokine Receptor CXCR2” (Molecules, 2023).

Assays:
[1] = molecular target: T1, human chemokine receptor CXCR2 (Homo sapiens, UniProt P25025); details: for CXCR2 antagonistic potency compared to the original hit 2: comparison of IC50 values; for CXCR2 antagonistic potency compared to the original hit 2 / CXCR2 antagonism (result in words): calcium mobilization assay; for CXCR2 antagonism (result in words): U87.CXCR2 cells
T1 sequence (P25025 1-360): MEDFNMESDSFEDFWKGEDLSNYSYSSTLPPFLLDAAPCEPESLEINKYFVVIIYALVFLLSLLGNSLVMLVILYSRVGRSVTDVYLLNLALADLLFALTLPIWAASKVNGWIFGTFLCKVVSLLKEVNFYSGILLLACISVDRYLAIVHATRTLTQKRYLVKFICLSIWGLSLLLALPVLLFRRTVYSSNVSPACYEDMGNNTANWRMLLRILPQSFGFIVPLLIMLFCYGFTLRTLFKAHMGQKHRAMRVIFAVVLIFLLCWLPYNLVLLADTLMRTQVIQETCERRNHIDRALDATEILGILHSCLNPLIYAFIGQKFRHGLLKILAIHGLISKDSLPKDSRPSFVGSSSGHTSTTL

[2] = molecular target: T1, human chemokine receptor CXCR2; test: cell-based

Structure (SMILES)	IC50 ([1]; read-out: IC50 (µM): compound concentration that inhibits CXCL8 induced intracellular calcium flux by 50%, U87 cells overexpressing CXCR2, 15 nM CXCL8, 10 min preincubation, average ± SD of at least three experiments) [µM]	IC50 [2]	CXCR2 antagonistic potency compared to the original hit 2 [1]	CXCR2 antagonism (result in words) [1]
C[C@H](CO)Nc1nc(SCc2cccc(F)c2F)nc2cnccc12 [Compound 2]	0.11 ± 0.019			
C[C@H](CO)Nc1nc(SCc2cccc(F)c2F)nc2cncc(Cl)c12 [Compound 9, (2R)-2-[(5-Chloro-2-(2,3-difluorobenzylmercapto)-pyrido[3,4-d]pyrimidine-4-yl)amino]propanol]		11 µM and 11.3 µM	one hundred fold less potent	
C[C@H](CO)Nc1nc(SCc2cccc(F)c2F)nc2cnc(Cl)cc12 [Compound 16a, (2R)-2-[(6-Chloro-2-(2,3-difluorobenzylmercapto)-pyrido[3,4-d]pyrimidine-4-yl)amino]propanol]		> 30 µM		completely devoid of CXCR2 antagonism
C[C@H](CO)Nc1nc(SCc2cccc(F)c2F)nc2cnc(-n3ccnc3)cc12 [Compound 16b, (2R)-2-[(6-Imidazolyl-2-(2,3-difluorobenzylmercapto)-pyrido[3,4-d]pyrimidine-4-yl)amino]propanol]		> 30 µM		did not have any beneficial effect on CXCR2 antagonism
C[C@H](CO)Nc1nc(SCc2cccc(F)c2F)nc2cnc(-c3ccccc3)cc12 [Compound 17a, (2R)-2-[(2-(2,3-Difluorobenzylmercapto)-6-phenyl-pyrido[3,4-d]pyrimidine-4-yl)amino]propanol]		> 30 µM		did not have any beneficial effect on CXCR2 antagonism
C[C@H](CO)Nc1nc(SCc2cccc(F)c2F)nc2cnc(-c3ccco3)cc12 [Compound 17b, (2R)-2-[(2-(2,3-Difluorobenzylmercapto)-6-(2-furanyl)-pyrido[3,4-d]pyrimidine-4-yl)amino]propanol]		0.54 ± 0.26 µM	five-fold reduced potency	
Cc1ccc(-c2cc3c(N[C@H](C)CO)nc(SCc4cccc(F)c4F)nc3cn2)o1 [Compound 17c, (2R)-2-[(2-(2,3-Difluorobenzylmercapto)-6-(5-methylfuran-2-yl)-pyrido[3,4-d]pyrimidine-4-yl)amino]propanol]		> 30 µM		complete loss of activity
C[C@H](CO)Nc1nc(SCc2cccc(F)c2F)nc2cnc(-c3cccs3)cc12 [Compound 17d, (2R)-2-[(2-(2,3-Difluorobenzylmercapto)-6-(2-thienyl)-pyrido[3,4-d]pyrimidine-4-yl)amino]propanol]		> 30 µM		did not have any beneficial effect on CXCR2 antagonism
C[C@H](CO)Nc1nc(SCc2cccc(F)c2F)nc2cnc(N)cc12 [Compound 21, (2R)-2-[(6-Amino-2-(2,3-difluorobenzylmercapto)-pyrido[3,4-d]pyrimidine-4-yl)amino]propanol]		> 30 µM		complete loss of CXCR2 antagonistic activity
CC[C@H](CO)Nc1nc(SCc2cccc(F)c2F)nc2cnccc12 [Compound 24a, (2R)-2-[(2-(2,3-Difluorobenzylmercapto)-pyrido[3,4-d]pyrimidine-4-yl)amino]butanol]		> 30 µM		

Now from value to compound:

IC50 ([1]; read-out: IC50 (µM): compound concentration that inhibits CXCL8 induced intracellular calcium flux by 50%, U87 cells overexpressing CXCR2, 15 nM CXCL8, 10 min preincubation, average ± SD of at least three experiments) [µM]	IC50 [2]	CXCR2 antagonistic potency compared to the original hit 2 [1]	CXCR2 antagonism (result in words) [1]	Structure (SMILES)
	> 30 µM			CC(C)(CO)Nc1nc(SCc2cccc(F)c2F)nc2cnccc12 [Compound 24b, 2-[(2-(2,3-Difluorobenzylmercapto)-pyrido[3,4-d]pyrimidine-4-yl)amino]-2-methyl-propan-1-ol]
	> 30 µM			OCC(O)CNc1nc(SCc2cccc(F)c2F)nc2cnccc12 (centres unmarked) [Compound 24c, 3-[(2-(2,3-Difluorobenzylmercapto)-pyrido[3,4-d]pyrimidine-4-yl)amino]propan-1,2-diol]
	> 30 µM			OCCNc1nc(SCc2cccc(F)c2F)nc2cnccc12 [Compound 24d, 3-[(2-(2,3-Difluorobenzylmercapto)-pyrido[3,4-d]pyrimidine-4-yl)amino]ethanol]
	> 30 µM		lacking CXCR2 antagonism	OCCOc1nc(SCc2cccc(F)c2F)nc2cnccc12 [Compound 24e, 3-[(2-(2,3-Difluorobenzylmercapto)-pyrido[3,4-d]pyrimidine-4-yl)oxy]ethanol]
	> 30 µM		devoid of CXCR2 antagonistic activity	C[C@H](CO)Nc1nc(NCc2cccc(F)c2F)nc2cnccc12 [Compound 26a, (2R)-2-[(2-(2,3-Difluorobenzylamino)-pyrido[3,4-d]pyrimidine-4-yl)amino]propanol]
	> 30 µM		devoid of CXCR2 antagonistic activity	C[C@H](CO)Nc1nc(OCc2cccc(F)c2F)nc2cnccc12 [Compound 26b, (2R)-2-[(2-(2,3-Difluorobenzyloxy)-pyrido[3,4-d]pyrimidine-4-yl)amino]propanol]
	> 30 µM		inactive as CXCR2 antagonists	C[C@H](CO)Nc1nc(Sc2ccccc2)nc2cnccc12 [Compound 26c, (2R)-2-[(2-(Phenylmercapto)-pyrido[3,4-d]pyrimidine-4-yl)amino]propanol]
	> 30 µM		inactive as CXCR2 antagonists	C[C@H](CO)Nc1nc(SCCc2ccccc2)nc2cnccc12 [Compound 26d, (2R)-2-[(2-(Phenylethylmercapto)-pyrido[3,4-d]pyrimidine-4-yl)amino]propanol]
	> 30 µM			CCCCCCSc1nc(N[C@H](C)CO)c2ccncc2n1 [Compound 26e, (2R)-2-[(2-(Hexylmercapto)-pyrido[3,4-d]pyrimidine-4-yl)amino]propanol]

Several values for one entry are separate records, joined by “and”; a condition that tells them apart may be missing. Equal entries are not always repeated. Where two headings read alike, the source gives them in different places.
